The source of these data is paper PMC7363125.

Common to all, as to test: pull-down; 5 ug GST-PLEKHA7 WW bait (E. coli) coupled to GSH-Sepharose beads, washed, incubated 1 h at 4 °C with normalized HEK cell lysate holding PDZD11-HA or CFP-HA; immunoblot with anti-HA; only the target purified
Assay [1] addresses T1, GST-PLEKHA7 WW1 + WW2 domain (1-162), mutation within the WW2 domain at position 68 (human) (UniProt Q6IQ23).
T1 sequence: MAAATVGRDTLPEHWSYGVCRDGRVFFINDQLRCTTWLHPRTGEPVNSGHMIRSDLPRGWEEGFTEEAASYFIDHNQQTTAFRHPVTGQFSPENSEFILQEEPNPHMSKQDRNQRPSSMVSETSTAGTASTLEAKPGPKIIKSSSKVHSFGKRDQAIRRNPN

The target of assay [2] is T2, GST-PLEKHA7 WW1 + WW2 domain (1-162), mutation within the WW2 domain at position 59 (human) (UniProt Q6IQ23).
T2 sequence: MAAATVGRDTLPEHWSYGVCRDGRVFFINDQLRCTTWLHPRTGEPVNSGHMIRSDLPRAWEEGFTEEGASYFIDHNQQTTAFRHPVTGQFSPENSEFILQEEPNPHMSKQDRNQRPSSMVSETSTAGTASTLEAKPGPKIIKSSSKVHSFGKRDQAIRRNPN

Assay [3] deals with T3, GST-PLEKHA7 WW1 + WW2 domain (1-162) T35A + N76A (human) (UniProt Q6IQ23).
T3 sequence: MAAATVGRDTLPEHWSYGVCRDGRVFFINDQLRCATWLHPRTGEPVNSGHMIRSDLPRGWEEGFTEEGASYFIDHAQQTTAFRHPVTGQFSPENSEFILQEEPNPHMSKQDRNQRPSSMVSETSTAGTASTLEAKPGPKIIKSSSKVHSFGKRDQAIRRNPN

Assay [4] deals with T4, GST-PLEKHA7 WW1 + WW2 domain (1-162) D74A (human) (UniProt Q6IQ23).
T4 sequence: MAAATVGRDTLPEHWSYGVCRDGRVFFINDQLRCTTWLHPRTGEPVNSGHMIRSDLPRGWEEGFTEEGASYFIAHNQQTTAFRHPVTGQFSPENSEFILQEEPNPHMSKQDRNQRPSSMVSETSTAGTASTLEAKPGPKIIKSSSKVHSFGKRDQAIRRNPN

For assay [5], the target named is T5, GST-PLEKHA7 WW1 domain (residues 1-56) V19A (human) (UniProt Q6IQ23).
T5 sequence: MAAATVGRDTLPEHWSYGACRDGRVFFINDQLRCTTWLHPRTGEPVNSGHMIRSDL

Assay [6] concerns the target T6, GST-PLEKHA7 WW1 + WW2 domain (1-162), mutation within the WW2 domain at position 61 (human) (UniProt Q6IQ23).
T6 sequence: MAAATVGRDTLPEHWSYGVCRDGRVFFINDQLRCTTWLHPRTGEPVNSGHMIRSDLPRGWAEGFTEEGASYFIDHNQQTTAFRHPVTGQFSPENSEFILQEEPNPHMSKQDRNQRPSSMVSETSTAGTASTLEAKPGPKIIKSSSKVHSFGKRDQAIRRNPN

The target in assay [7] is T7, GST-PLEKHA7 WW1 + WW2 domain (1-162) N29A (human) (UniProt Q6IQ23).
T7 sequence: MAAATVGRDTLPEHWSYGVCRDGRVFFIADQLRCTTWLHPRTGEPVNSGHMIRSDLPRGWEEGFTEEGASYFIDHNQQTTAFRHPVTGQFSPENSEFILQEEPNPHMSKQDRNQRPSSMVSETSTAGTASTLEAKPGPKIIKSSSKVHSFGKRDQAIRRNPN

Assay [8] has as its target T8, GST-PLEKHA7 WW1 + WW2 domain (1-162) N76A (human) (UniProt Q6IQ23).
T8 sequence: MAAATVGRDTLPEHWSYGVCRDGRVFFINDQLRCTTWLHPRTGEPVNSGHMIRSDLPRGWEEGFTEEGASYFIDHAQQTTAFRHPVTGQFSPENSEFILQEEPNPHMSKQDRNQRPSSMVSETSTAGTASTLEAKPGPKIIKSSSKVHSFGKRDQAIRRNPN

The target in assay [9] is T9, GST-PLEKHA7 WW1 + WW2 domain (1-162) R33A + N76A (human) (UniProt Q6IQ23).
T9 sequence: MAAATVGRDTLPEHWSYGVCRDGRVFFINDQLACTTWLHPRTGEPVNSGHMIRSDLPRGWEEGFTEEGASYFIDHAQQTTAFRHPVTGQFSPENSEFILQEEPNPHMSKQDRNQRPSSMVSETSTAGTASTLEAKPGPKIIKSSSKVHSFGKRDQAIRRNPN

No constants are given. Whether binding was seen depends on the method and setting. In cells and extracts the contact can be indirect. Some entries that bind do so weakly or less than the wild type. Tags and fused reporters may be left off the sequences shown.

B1: PDZD11-HA (human) full-length (protein, UniProt Q5EBL8 1-140)
chain: MDSRIPYDDYPVVFLPAYENPPAWIPPHERVHHPDYNNELTQFLPRTITLKKPPGAQLGFNIRGGKASQLGIFISKVIPDSDAHRAGLQEGDQVLAVNDVDFQDIEHSKAVEILKTAREISMRVRFFPYNYHRQKERTVH
Regarding B1, the binding entry in [1] was “binds”; in assay [2] it was “binds”; in [3], “binds”; in assay [4], “binds”; in assay [5], “no binding”; in assay [6], “binds”. For the same molecule, the binding result in assay [7], in assay [8] and in [9] was “binds” each time.
